Assay results: the supplement of paper PMC3334620
In all, about 33,000 sequences were measured (“E-score (-0.5 to 0.5)”: median about -0.012, highest 2% from about 0.27 on). The list shows a part of the results.

These sequences were tested against T1, Vhr1 (UniProt P40522) (assay: PBM E-score (8-mer binding enrichment) (E-score (-0.5 to 0.5)); higher = stronger / more preferred TF binding; most listed sequences are background and not binding sites). Details: protein concentration: 200 nM; construct: GST-full length.
T1 sequence: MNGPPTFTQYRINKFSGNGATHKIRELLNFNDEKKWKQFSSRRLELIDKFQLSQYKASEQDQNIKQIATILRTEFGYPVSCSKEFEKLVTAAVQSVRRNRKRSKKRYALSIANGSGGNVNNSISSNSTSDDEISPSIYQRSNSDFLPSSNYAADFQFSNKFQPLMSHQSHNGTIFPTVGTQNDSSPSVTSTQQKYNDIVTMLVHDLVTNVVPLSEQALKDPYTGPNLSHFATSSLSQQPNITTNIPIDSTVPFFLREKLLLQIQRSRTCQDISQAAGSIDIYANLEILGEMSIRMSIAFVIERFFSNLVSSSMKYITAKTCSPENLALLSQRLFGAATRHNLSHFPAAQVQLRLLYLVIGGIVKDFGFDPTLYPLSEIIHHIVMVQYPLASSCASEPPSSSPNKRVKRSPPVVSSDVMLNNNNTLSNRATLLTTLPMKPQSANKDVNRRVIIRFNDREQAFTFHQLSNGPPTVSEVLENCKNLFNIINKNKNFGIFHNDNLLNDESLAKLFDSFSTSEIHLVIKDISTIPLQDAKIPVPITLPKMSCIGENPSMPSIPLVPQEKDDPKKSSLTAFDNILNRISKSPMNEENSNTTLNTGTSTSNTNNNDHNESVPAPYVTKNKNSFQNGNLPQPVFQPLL
Experimental: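 Universal 'all 10-mer' protein binding microarrays (Agilent AMADID 015681) probed with GST-tagged S. cerevisiae TFs (full-length or DBD) made by in vitro transcription/translation (PURExpress), about 100-200 nM. Bound TF was detected with fluorescent anti-GST. Each ungapped 8-mer (which stands for itself and its reverse complement) is scored by the PBM enrichment score (E-score), a modified Wilcoxon-Mann-Whitney statistic from -0.5 to +0.5, computed with the Universal PBM Analysis Suite. Scale: above 0.35 generally sequence-specific binding.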

Row | Sequence | PBM E-score
1 | ACTCGCGA | 0.227
2 | GACGCGCC | -0.112
3 | AGCAGCAG | 0.036
4 | CGACCACA | 0.0511
5 | CTACGGAG | 0.105
6 | GCCAGACC | -0.115
7 | CAAGCTAC | -0.113
8 | AGGGCTTG | 0.0179
9 | CGGGATAG | 0.0531
10 | AGCTGGAG | -0.0498
11 | ATGCGCCC | 0.169
12 | ATCGTTTA | -0.0734
13 | CGTTGGGA | 0.0104
14 | TGAATAAA | 0.0352
15 | GACAGTAA | 0.127
16 | ATGAAGGG | -0.0895
17 | CTATCGTA | 0.0393
18 | CAATTTTC | -0.0832
19 | AGATCCTC | -0.103
20 | ACCATGAG | 0.0389
21 | CAATGAAC | 0.0372
22 | ACACCACG | 0.0515
23 | ATTATGGC | 0.0532
24 | CAAAATGA | -0.029
25 | GTGGTATA | 0.0698

Row | Sequence | PBM E-score
26 | AACATAAT | 0.24
27 | CCTTATCC | -0.101
28 | CCCCCTGA | -0.153
29 | ACGAGCAA | -0.0519
30 | AGGGGGCA | -0.151
31 | CGATCCCA | -0.0258
32 | AAGAAACT | -0.0916
33 | ATCTGTTA | -0.0428
34 | AATACGCG | 0.0497
35 | CCCCTATA | 0.0591
36 | TATCATCA | 0.147
37 | ACTCGATA | 0.169
38 | CATCGAAA | -0.00635
39 | AATGTCGG | -0.00533
40 | AGAGCGCG | 0.00097
41 | ATCTCAAC | 0.111
42 | ACAGGGTG | -0.155
43 | CCCTATTA | 0.00823
44 | CAGGCCAA | -0.0839
45 | ATATTGGG | -0.038
46 | CCAAAGCG | -0.206
47 | CATGTCAA | -0.203
48 | AGTTAACT | -0.184
49 | GAATCAGC | 0.307
50 | AATGACCC | 0.0322

Row | Sequence | PBM E-score
51 | CTACGTCA | -0.00453
52 | CACGTTAG | -0.0287
53 | CACCAATC | 0.165
54 | ACGAGTCT | 0.0718
55 | CTGGCAGA | 0.0235
56 | CCGTGTCG | -0.113
57 | ACAGAGCC | 0.0426
58 | GTCAACTA | 0.0901
59 | ACAGCGGT | -0.075
60 | GGCGTTAA | -0.183
61 | ATCACGGA | 0.0904
62 | CTGTGCCC | -0.0743
63 | AGTGTTCA | 0.0309
64 | GAGGAGAC | -0.0319
65 | ACCCGTCC | 0.00693
66 | TCCTAGAA | -0.237
67 | ATAGGGCC | -0.28
68 | TCCGGGCA | -0.025
69 | CCGAGTTC | 0.00501
70 | CCTCGATC | -0.0169
71 | CGATACGC | 0.0387
72 | GAAACCAA | 0.0781
73 | AAGCGCGC | 0.0559
74 | ACGTGCTG | 0.0599
75 | AAACAGTA | -0.103

Row | Sequence | PBM E-score
76 | GCATATGA | 0.19
77 | AATGGGCG | -0.00832
78 | AAGAGTTA | -0.00174
79 | CGAGCCTA | -0.0407
80 | GTCACCAA | 0.166
81 | AATGGGGA | -0.178
82 | TGGGGGAA | -0.257
83 | CCACGGTA | -0.0101
84 | ACGCGCTG | 0.152
85 | GACACAAC | 0.0166
86 | AGCTCGTG | 0.145
87 | GCCTCCAC | -0.261
88 | ACCGATCC | 0.00526
89 | CTGCACGA | 0.169
90 | AAACGTTT | -0.344
91 | CCTTTAGC | -0.354
92 | CATACCGC | 0.156
93 | TTGATCAA | 0.082
94 | ACGGACGA | 0.225
95 | CAGTAACA | -0.0965
96 | CCAAGCCC | -0.207
97 | GTTGCGGA | -0.172
98 | CTTTTATA | -0.286
99 | TACAACCA | 0.154
100 | ACGAATCC | 0.117

Row | Sequence | PBM E-score
101 | AGCTCTCC | -0.191
102 | CCGCAGTC | 0.274
103 | CCTTACAG | -0.288
104 | AGAGAGCC | -0.21
105 | ATGTTTTA | -0.227
106 | AGCATCTG | -0.00281
107 | TAACCTGA | 0.00042
108 | AGGGTTAT | -0.00112
109 | CCATGAGA | 0.191
110 | GCTATGTA | -0.0404
111 | AATATGGC | -0.123
112 | AGTGCACA | 0.0902
113 | CAAAATGC | -0.104
114 | AGCCTGTC | 0.177
115 | ATTCTACA | 0.0873
116 | AAATTGGG | -0.19
117 | AGAGGGCC | -0.166
118 | TACTTAGA | -0.0792
119 | ACCAGGCA | -0.0327
120 | CTAACGCC | -0.0753
121 | GTGGGATA | 0.15
122 | ATCAGTGG | 0.122
123 | ACATTGGG | -0.206
124 | TAGGGGCA | -0.216
125 | CGGATGAA | -0.0447

Row | Sequence | PBM E-score
126 | CTTTAAAC | -0.285
127 | GCTCTTCA | -0.147
128 | CATACTCA | 0.285
129 | AACCCGGC | -0.189
130 | AGTCGGGA | 0.205
131 | GACTGCGC | 0.103
132 | CCATAGCA | 0.0998
133 | ATAAAACA | -0.125
134 | ACCTCGTA | 0.112
135 | CGCCACAC | 0.196
136 | AATGGCGG | 0.0431
137 | CTCAAACC | 0.0714
138 | ATGCTGCG | 0.0386
139 | CACAGTAG | 0.00925
140 | CCATCTTA | -0.00123
141 | CGAGGGAG | 0.0601
142 | ACTAGTTG | -0.00362
143 | GTACAGAC | -0.0665
144 | AATCGGTC | -0.00595
145 | CCCTCTGC | -0.364
146 | CCGATACA | -0.056
147 | ATGTAGAG | -0.231
148 | ATCCATCG | 0.0134
149 | CCCTCTAG | -0.0547
150 | CACAATGA | 0.286

Row | Sequence | PBM E-score
151 | CAAAATTG | -0.0949
152 | AAGTCTGG | -0.102
153 | ATCATATG | 0.174
154 | CAGCAGCA | 0.0586
155 | AGTCTGCA | -0.119
156 | GATAACGA | 0.0151
157 | GACTCGCA | 0.319
158 | CTTCCAAA | -0.31
159 | CGGAGCTC | -0.286
160 | AACAAATG | -0.0364
161 | CCTTTTAC | 0.0295
162 | ACTTAGAT | -0.0097
163 | GGACATAC | -0.00803
164 | ATGCAGAC | 0.0179
165 | TCAGGCAA | 0.0347
166 | CCCATGAA | 0.0105
167 | CAGCTAGA | 0.0392
168 | AACGTTTG | -0.0879
169 | CATAGAAC | 0.0546
170 | AGATAACA | 0.0447
171 | GTGCTCTA | -0.0581
172 | CCCGCGAA | 0.137
